Here are results for 92 compounds from PubChem BioAssay AID360 (National Center for Advancing Translational Sciences (NCATS), 2006).

Each structure is given as a SMILES string. Hit rate of the full screen: of about 48,000 compounds, about 550 (1.1%) were called active. Another 4% or so got no clear call; they are omitted. Rule as the data show it: active = potency below about 15 µM; inconclusive = mostly about 16 µM to 33 µM; inactive = weaker than that. This is one part of the list.
Potency is read from the fitted curve at half-maximal effect.

This assay has as its target Lysosomal acid glucosylceramidase (Homo sapiens) (UniProt P04062). Briefly: Glucocerebrosidase.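 Also: the screen sought inhibitors.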 Conditions: purified enzyme, resorufin glucoside fluorescence (screen aimed at inhibitors), 20 min. The text has this: NCGC Assay Overview: Beta-glucocerebrosidase catalyzes the hydrolysis of beta-glucocerebroside to glucose and ceramide. The inherited deficiency of beta-glucocerebrosidase results in Gaucher disease, which is characterized by a wide variety of symptoms including hepatosplenomegaly, anemia, thrombocytopenia, bony lesions and bone marrow infiltration with characteristic storage cells, known as Gaucher cells. There are also forms of the disorder affecting the central nervous system. Patients with the same genotypes can manifest with diverse clinical presentations and it is believed that improper folding and trafficking of beta-glucocerbrosidase may contribute to the phenotypes observed. Low molecular weight molecules, acting as chaperones, may potentially restore trafficking of misfolded beta-glucocerebrosidase from the endoplasmic reticulum to the lysosomes, thereby enhancing functional lysosomal beta-glucocerebrosidase activity. Using normal beta-glucocerebrosidase, an assay was developed to screen for small molecule inhibitors that could potentially act as molecular chaperones on the mutant forms [developed with NIH investigator Dr. Ellen Sidransky's laboratory]. Two pro-fluorescent substrates were chosen for two screens against a small molecule library. One beta-glucocerebrosidase assay used Resorufin beta-D-Glucopyranoside (Marker Gene Technology Inc.), generating a red fluorescent product. The second assay used Fluorescein di-beta-D-Glucopyranoside, generating a blue fluorescent product. […] The IC50 values of Conduritol B Epoxide, a known glucocerebrosidase inhibitor, were determined to be 87.5 uM and 117 uM, respectively. The use of two difference pro-fluorescent substrates in the screens helped to eliminate false positives. All compounds were screened in a titration series resulting in AC50s (e.g., IC50s or EC50s).
UniProt P04062, sequence (P04062 whole entry, looked up): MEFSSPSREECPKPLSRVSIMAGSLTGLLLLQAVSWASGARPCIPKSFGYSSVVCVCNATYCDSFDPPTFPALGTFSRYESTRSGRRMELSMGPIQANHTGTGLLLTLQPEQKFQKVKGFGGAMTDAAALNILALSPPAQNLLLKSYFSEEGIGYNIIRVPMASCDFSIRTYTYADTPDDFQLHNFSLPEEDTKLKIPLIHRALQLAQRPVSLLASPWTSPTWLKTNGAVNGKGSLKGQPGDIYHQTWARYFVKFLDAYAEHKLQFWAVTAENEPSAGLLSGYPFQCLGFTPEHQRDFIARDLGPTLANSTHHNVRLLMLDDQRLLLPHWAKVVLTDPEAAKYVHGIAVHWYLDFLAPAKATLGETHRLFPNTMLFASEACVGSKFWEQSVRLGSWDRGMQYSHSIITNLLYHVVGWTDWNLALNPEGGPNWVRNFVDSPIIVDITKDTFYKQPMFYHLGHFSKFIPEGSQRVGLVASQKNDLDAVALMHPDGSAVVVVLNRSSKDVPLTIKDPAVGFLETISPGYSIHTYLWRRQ
NCGC Assay Protocol Summary: Both enzyme and substrate were diluted in buffer composed of 50mM citric acid/KH2PO4, 10mM sodium taurocholate and 0.01% tween-20 at pH 5.9. The final concentration of the enzyme was 0.2 nM in both assays. The compound library was titrated in 7 to 15 concentrations for the primary screens with a final concentration ranging from 0.6 nM to 50 uM. This particular assay protocol is for the "red" substrate, and it was performed in 1536-well plate format as follows: Red fluorescence substrate assay: 2 uL enzyme 23 nL compound 1 uL substrate (final concentration of 30 uM) Incubate at room temperature (RT) for 20 minutes Read the plate in Viewlux plate reader (Ex=548(7) and Em=600(10)).
Consider `CCOc1ccc(NC(=O)CN2CCN(CC(=O)c3ccc(OC)c(OC)c3)CC2)cc1`, for which the Potency was inactive: > 76.9 µM. On to `CCCn1nc(C(=O)Nc2cc(C(=O)OC)ccc2C)c2ccccc2c1=O`, for which the Potency was inactive: > 76.9 µM. Take `Cc1ccc(S(=O)(=O)N2C(=O)CCC2C(=O)Nc2ccc3c(c2)OCCO3)cc1` (configuration not stated): the Potency was inactive: > 76.9 µM. Take `Cc1ccc(NC(=O)Cc2nc(CSc3nnc(-c4ccc5c(c4)OCO5)o3)cs2)cc1`: the Potency was inactive: > 76.9 µM.

In the case of `COc1ccc(-n2c(O)c(C=NC3CC3)c(=O)[nH]c2=O)cc1`, the Potency is inactive: > 76.9 µM. Take `Cc1cc(=O)oc(C)c1C(=O)O`: the Potency was inactive: > 76.9 µM. In the case of `CCCCn1c(=N)n(CC(=O)C(C)(C)C)c2ccccc21` it was inactive: > 76.9 µM; in that of `O=c1c(O)c(-c2ccc3c(c2)OCO3)oc2ccccc12`, inactive: > 76.9 µM. Under `C=CCn1c(SCn2nnc3ccccc3c2=O)nnc1-c1ccc(Br)cc1` stands inactive: > 76.9 µM; under `CNc1nc2c(c(=O)[nH]c(=O)n2C)n1CCOC`, inactive: > 76.9 µM.

Regarding `O=C(CSc1nc(Nc2ccccc2)nc(N2CCOCC2)n1)N1CCc2ccccc21`, the Potency was inactive: > 76.9 µM. As to `CCN(CC)S(=O)(=O)c1cccc(C(=O)Nc2ccccc2C(=O)N2CCOCC2)c1`, the Potency was inactive: > 76.9 µM.

For `Cn1c(=O)c2c(nc(NC(Cc3ccccc3)C(=O)O)n2Cc2ccccc2)n(C)c1=O` (configuration not stated), the Potency was inactive: > 76.9 µM.

As to `COc1cc(C(=O)N2CCN(C(=O)C3CC3)CC2)cc(OC)c1OC`, the Potency was inactive: > 76.9 µM. Regarding `CC1CN=C(c2cccn2Cc2ccc(F)cc2Cl)O1` (configuration not stated), the Potency was inactive: > 76.9 µM. For the compound `COc1ccc(NC2CC(=O)NC2=O)cc1` (configuration not stated), the Potency was inactive: > 76.9 µM. On to `COc1cc(NC(=O)c2csc3c2CCCC3)ncn1`, for which the Potency is inactive: > 76.9 µM. In the case of `Cc1cc(=O)[nH]c(SCc2nc3ccccc3s2)n1`, the Potency was inactive: > 76.9 µM. `COc1ccc2nc(NS(=O)(=O)c3ccc(NC(C)=O)cc3)sc2c1`: the Potency is inactive: > 76.9 µM. In the case of `O=C1CN(C(=O)c2ccccn2)c2ccccc2N1`, the Potency was inactive: > 76.9 µM. With `CCOc1ccccc1Nc1nnc(SCC(=O)Nc2cc(C)on2)s1`, the Potency result was “inactive”. `O=C(NCc1ccccc1F)C1CCCN1C(=O)NCc1ccccc1` (configuration not stated): the Potency was inactive: > 76.9 µM. Under `O=C(OCc1nnc(-c2ccccc2)o1)c1ccc2c(c1)OCO2` stands inactive: > 76.9 µM; under `CCOc1ccc(-c2nnc3sc(COc4ccc(Cl)cc4)nn23)cc1`, inactive: > 76.9 µM. Under `CCOC(=O)CN(C(=O)CSc1nnc(C)n1-c1ccccc1)c1ccccc1` stands inactive: > 76.9 µM; under `O=C(CSc1nnc(-c2ccco2)o1)c1ccccc1`, inactive: > 76.9 µM. Consider `Cc1ccc(C(=O)c2cc(C)sc2NC(=O)CN2CCN(C(=O)c3ccco3)CC2)cc1`, for which the Potency is inactive: > 76.9 µM. For the compound `CC1CCCN(S(=O)(=O)c2ccc3c(c2)CCN3C(=O)C2CCC2)C1` (configuration not stated), the Potency was inactive: > 76.9 µM. For `O=C(OCC(=O)N1CCCc2ccccc21)c1ccc(Br)o1`, the Potency was inactive: > 76.9 µM.

In the case of `CCCS(=O)(=O)N1CCCC(C(=O)NCCCOC(C)C)C1` (configuration not stated), the Potency was inactive: > 76.9 µM.

Consider `CC(C)Sc1nc2c(c(=O)n(C)c(=O)n2C)n1C`, for which the Potency is inactive: > 76.9 µM. For the compound `Cc1[nH]nc2c1C1(CCN(C(=O)c3ccccc3)CC1)C(C#N)=C(N)O2`, the Potency was inactive: > 76.9 µM.

With `N#CCC(=O)Nc1ccccc1C(=O)O`, the Potency was inactive: > 76.9 µM. For `O=S(=O)(c1ccc(OCC(O)CN2CCc3ccccc3C2)cc1)N1CCOCC1` (configuration not stated), the Potency is inactive: > 76.9 µM. Turning to `C=CCOC(=O)C1=C(C)Nc2nnnn2C1c1cccc(OC)c1OC` (configuration not stated), the Potency was inactive: > 76.9 µM.

Regarding `CC1(C)Cc2nc(-c3ccccc3)n3cnnc3c2CO1`, the Potency is inactive: > 76.9 µM. Under `COC(=O)CCC(=O)Nc1cccc(Br)c1` stands inactive: > 76.9 µM. For `O=C(CSc1nc(-c2ccccc2)cc(=O)[nH]1)Nc1ccccn1`, the Potency was inactive: > 76.9 µM. On to `CCc1ccccc1N(CC(=O)NCc1ccco1)C(=O)c1snc(C(N)=O)c1N`, for which the Potency was inactive: > 76.9 µM.

`COc1ccc(NC(=O)c2ccco2)c(OC)c1`: the Potency is inactive: > 76.9 µM.

With `O=C(CN1C(=O)COc2ccccc21)NCCCN1CCN(Cc2ccccc2)CC1`, the Potency is inactive: > 76.9 µM. Take `COCC(C)n1c(C)cc(C(=O)COC(=O)c2ccc(N3CCCC3=O)cc2)c1C` (configuration not stated): the Potency was inactive: > 76.9 µM. Turning to `CCN(CCCn1c(SCC#N)nc2ccccc2c1=O)c1ccccc1`, the Potency was inactive: > 76.9 µM.

For the compound `CCCCNC(=O)C1c2cc(OC)c(OC)cc2C(=O)N(C)C1c1ccc(OC)cc1` (configuration not stated), the Potency was inactive: > 76.9 µM. For the compound `Cc1ccc(C2Nc3ccccc3C(=O)N2Cc2ccco2)cc1` (configuration not stated), the Potency is inactive: > 76.9 µM.

Turning to `CCOC(=O)N1CCN(c2nc(C(F)(F)F)nc3c(C)cc(C)cc23)CC1`, the Potency entry was “inactive”. For the compound `Cc1ccc(OCC(=O)Nc2cccc(C)n2)c(C)c1`, the Potency is inactive: > 76.9 µM. Turning to `CC1(C)OC(=O)C(=CNCC(=O)NCC(=O)O)C(=O)O1`, the Potency is inactive: > 76.9 µM. For the compound `CC1CCCCN1C(=O)CN1C(=O)CN(C)C(=O)c2ccccc21` (configuration not stated), the Potency was inactive: > 76.9 µM.

In the case of `Cn1c(=O)c2c(nc(CN3CCN(C(=O)c4ccco4)CC3)n2Cc2cccc(Cl)c2)n(C)c1=O`, the Potency is inactive: > 76.9 µM.

Regarding `Cc1ccc(OCCN2C(=O)CSC2=O)cc1`, the Potency is inactive: > 76.9 µM.

On to `O=c1[nH]c(CSc2nnc(-c3ccco3)n2-c2ccccc2)nc2sc3c(c12)CCC3`, for which the Potency is inactive: > 76.9 µM. In the case of `CCn1c(=O)n(CC)c2cc(S(=O)(=O)Nc3ccccc3C)c(C)cc21`, the Potency is inactive: > 76.9 µM. Turning to `COCCCNC(=O)CS(=O)(=O)Cc1nc(-c2cccc(OC)c2)oc1C`, the Potency was inactive: > 76.9 µM. Under `COc1ccc2cc(C(c3nnnn3CCc3ccccc3)N3CCCC(C)C3)c(=O)[nH]c2c1` (configuration not stated) stands inactive: > 76.9 µM; under `Cc1cc(C(=O)CSc2nnc(-c3cccs3)n2Cc2ccccc2)c(C)n1C`, inactive: > 76.9 µM. In the case of `COCCCn1c(SCC(=O)N2CCCC(C)C2)nnc1-c1ccco1` (configuration not stated), the Potency was inactive: > 76.9 µM. Consider `O=C(O)CCc1nc(-c2ccccc2Cl)no1`, for which the Potency was inactive: > 76.9 µM. For the compound `CN(C)c1ccc(CNn2cnnc2SCc2ccccc2F)cc1`, the Potency was inactive: > 76.9 µM. On to `COCC(=O)Nc1sc2c(c1C(=O)OC)CCCC2`, for which the Potency was inactive: > 76.9 µM. `COc1ccc(C(=O)CSc2nnc(-c3ccoc3C)n2CC2CCCO2)cc1` (configuration not stated): the Potency is inactive: > 76.9 µM. Turning to `c1ccc(Cc2ccc(OCCn3cncn3)cc2)cc1`, the Potency is inactive: > 76.9 µM. Consider `CC(=O)Nc1cc(NC(C)=O)c2nc(N)sc2c1`, for which the Potency was inactive: > 76.9 µM.

As for `C=CCn1c(N)cc(=O)nc1SCC(=O)N1CCN(c2ccc(F)cc2)CC1`, the Potency is inactive: > 76.9 µM.

Turning to `CCOc1ccc(Br)cc1S(=O)(=O)N1CC(C)OC(C)C1` (configuration not stated), the Potency is inactive: > 76.9 µM. For the compound `CCOC(=O)N1CCN(C(=O)c2n[nH]c(=O)c3ccccc23)CC1`, the Potency is inactive: > 76.9 µM. Turning to `CC(C)COP(=O)(c1ccc(N(C)C)cc1)C(O)c1ccccn1` (configuration not stated), the Potency is inactive: > 76.9 µM. As for `CC(=O)OCC(=O)Nc1ccc(Cl)cc1Cl`, the Potency is inactive: > 76.9 µM. Turning to `CCNc1nc(N2CCCCC2)nc(-n2nnc(C(=O)OCC)c2C)n1`, the Potency entry is “inactive”. As to `COc1ccc(C2CC(=O)C3=C(C2)Nc2ncnn2C3c2ccccc2)cc1` (configuration not stated), the Potency is inactive: > 76.9 µM. For `O=C(Nc1ccc2c(c1)OCCO2)C1CCN(S(=O)(=O)c2cccc3nsnc23)CC1`, the Potency is inactive: > 76.9 µM.

As to `CCN(CC)CCn1c(OC)cc(=O)[nH]c1=O`, the Potency was inactive: > 76.9 µM. Under `COC(=O)c1sc(NC(=O)c2ccco2)nc1C` stands inactive: > 76.9 µM; under `Cc1sc2nc(-c3ccco3)oc(=O)c2c1C`, inactive: > 76.9 µM; under `O=C(COn1nnc2ccc(C(F)(F)F)cc21)Nc1nnc(-c2ccccc2)o1`, inactive: > 76.9 µM. In the case of `COc1cccc(-n2nnnc2SCC(=O)NCc2ccc3c(c2)OCO3)c1` it was inactive: > 76.9 µM; in that of `Oc1ccc(-c2cccc(-c3ccc(O)cc3)n2)cc1`, inactive: > 76.9 µM. In the case of `CCOc1ccc(C2C(C#N)=C(N)Oc3cc(C)n(CCN(C)C)c(=O)c32)cc1OCC` (configuration not stated) it was inactive: > 76.9 µM; in that of `O=S(=O)(c1ccc(OCC(O)CN2CCN(c3ccccc3Cl)CC2)cc1)N1CCOCC1` (configuration not stated), inactive: > 76.9 µM. `COc1ccc(C(=O)O)cc1F`: the Potency is inactive: > 76.9 µM.

For the compound `COCCn1c(=NC(=O)CSCC(=O)Nc2cc(C)on2)sc2cc(C(=O)OC)ccc21`, the Potency was inactive: > 76.9 µM. Take `CC(C)(C)Nc1nc(SCc2ccccc2)nc(N2CCOCC2)n1`: the Potency was inactive: > 76.9 µM.

Turning to `O=C(CCCn1c(=S)[nH]c2ccccc2c1=O)NC1CCCC1`, the Potency result is “inactive”. Take `Cc1ccc(-c2nc(NC(=O)CSc3nnnn3-c3ccccc3)ns2)cc1`: the Potency was inactive: > 76.9 µM. In the case of `CC(C)CNC(=O)c1cccc(NC(=O)C2CCCO2)c1` (configuration not stated), the Potency is inactive: > 76.9 µM. With `COc1ccc(-c2nc(SCC(=O)NCc3ccco3)c(-c3ccccc3)[nH]2)cc1OC`, the Potency is inactive: > 76.9 µM. In the case of `CC(=O)C1=C(C)NC(=O)NC1c1cccc(O)c1` (configuration not stated), the Potency is inactive: > 76.9 µM. In the case of `CC(=O)C(Sc1nc(-c2ccco2)nc2c1c(=O)n(C)c(=O)n2C)C(=O)N(C)C` (configuration not stated) it was inactive: > 76.9 µM; in that of `Cc1ccccc1C(=O)c1cccn1CC(=O)N1CCCCCC1`, inactive: > 76.9 µM; in that of `c1ccc2nc3c(nc2c1)CCc1nonc1-3`, inactive: > 76.9 µM. In the case of `CCCC(C)C(=O)Nc1ccc(Cl)cn1` (configuration not stated) it was inactive: > 76.9 µM; in that of `CCOc1ccccc1C(=O)NC(C(=O)Nc1ccccc1N1CCOCC1)C(C)C` (configuration not stated), inactive: > 76.9 µM.
